Assay results reported in paper PMC4336329 (PLoS ONE, 2015).
The whole screen tested about 310,000 compounds, of which about 14,000 (4.5%) showed an effect of 50% or more. Effects have a minus sign here. This is one part of the list.

molecular target: human ether-à-go-go-related gene (hERG) potassium channel (human, UniProt Q12809); assay: primary screen, population patch clamp on CHO cells stably expressing hERG
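Also: peak tail current of the secondary pulse compared with the same well before compound.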

Sequence of human ether-à-go-go-related gene (hERG) potassium channel (Q12809 whole entry, looked up): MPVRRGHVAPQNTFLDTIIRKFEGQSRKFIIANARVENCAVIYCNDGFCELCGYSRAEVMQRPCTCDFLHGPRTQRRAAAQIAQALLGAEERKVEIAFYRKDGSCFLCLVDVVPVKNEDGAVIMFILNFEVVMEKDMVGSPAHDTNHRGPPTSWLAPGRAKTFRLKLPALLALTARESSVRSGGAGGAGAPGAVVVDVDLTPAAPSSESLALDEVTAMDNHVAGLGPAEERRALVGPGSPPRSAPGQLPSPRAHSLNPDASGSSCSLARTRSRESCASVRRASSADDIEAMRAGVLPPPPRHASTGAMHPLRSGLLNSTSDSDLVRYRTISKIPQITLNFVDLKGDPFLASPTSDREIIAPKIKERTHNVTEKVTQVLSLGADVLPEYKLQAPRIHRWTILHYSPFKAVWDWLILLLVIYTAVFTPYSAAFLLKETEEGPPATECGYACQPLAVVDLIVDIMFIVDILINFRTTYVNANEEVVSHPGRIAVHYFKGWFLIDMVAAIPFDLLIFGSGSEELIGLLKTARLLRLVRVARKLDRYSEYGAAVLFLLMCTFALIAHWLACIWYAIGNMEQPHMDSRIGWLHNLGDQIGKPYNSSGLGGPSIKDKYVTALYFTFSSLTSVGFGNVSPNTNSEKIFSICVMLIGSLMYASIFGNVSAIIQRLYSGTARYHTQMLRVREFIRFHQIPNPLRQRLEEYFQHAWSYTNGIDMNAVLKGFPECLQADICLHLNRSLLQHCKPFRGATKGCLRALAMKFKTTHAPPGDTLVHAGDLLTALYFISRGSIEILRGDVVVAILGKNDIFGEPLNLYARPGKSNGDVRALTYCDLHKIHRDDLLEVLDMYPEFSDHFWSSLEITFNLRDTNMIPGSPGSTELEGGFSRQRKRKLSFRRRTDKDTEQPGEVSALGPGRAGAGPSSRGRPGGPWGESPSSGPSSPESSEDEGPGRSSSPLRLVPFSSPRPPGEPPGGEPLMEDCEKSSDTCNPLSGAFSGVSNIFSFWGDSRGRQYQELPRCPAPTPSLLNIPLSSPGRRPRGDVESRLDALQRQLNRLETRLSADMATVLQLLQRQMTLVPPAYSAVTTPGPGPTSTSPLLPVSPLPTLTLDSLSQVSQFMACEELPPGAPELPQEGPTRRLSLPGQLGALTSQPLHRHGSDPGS

| SMILES | hERG current change (%, negative = inhibition) at 10uM [%] |
| --- | --- |
| CC(C)Cn1c(N)c(C(=O)CSc2n[nH]c(N)n2)c(=O)n(C)c1=O | 9.61 |
| CC1CC(C)(C)CC2(C1)NC(=O)N(CC(=O)Nc1cc([N+](=O)[O-])ccc1F)C2=O (centres unmarked) | -23.6 |
| COCCCNC(=O)c1cc2c(=O)n3cccc(C)c3nc2s1 | 7.44 |
| c1ccc2c(-c3cncc4ccccc34)cncc2c1 | -16.8 |
| CCN(CC)C(=O)Oc1ccnc2cc(Cl)ccc12 | -23.3 |
| COc1ccc([N+](=O)[O-])cc1NC(=O)C(C)OC(=O)C1CCCC1 (centres unmarked) | -24.1 |
| Cl.OCCN1CCN(CC(O)COc2ccc3c(c2)OCO3)CC1 (centres unmarked) | 12.7 |
| CN(C)S(=O)(=O)c1cc(NC(=O)CN2CCN(c3ccc(O)cc3)CC2)ccc1Cl | -6.1 |
| Nc1nc(Nc2ccccc2)nc(NCc2ccco2)c1[N+](=O)[O-] | -23.9 |
| CC(CNS(=O)(=O)c1ccccc1)Sc1ncccn1 (centres unmarked) | -0.584 |
| CN(Cc1ccccc1)S(=O)(=O)c1ccc2[nH]c(=O)oc2c1 | 4.88 |
| CC(C)CN1CCC(CNC(=O)CCc2nnc(Cc3c[nH]c4ccccc34)o2)CC1 | -1.27 |
| NC(=S)N/N=C/c1ccccc1OCCSc1ccc(Cl)cc1 | 1.23 |
| Cc1[nH]c2ccccc2c1/C=N\NC(=O)Cn1nnc(-c2ccccc2)n1 | 23 |
| O=C(O)C(=O)O.O=C(c1ccccc1)N1CCN(C2CC3CCC2C3)CC1 (centres unmarked) | -4.37 |
| Cc1c(C)c2cc(Cl)c(OCC(=O)N3C[C@H]4C[C@@H](C3)c3cccc(=O)n3C4)cc2oc1=O | 1.78 |
| CCn1c(CSc2nc3ccccc3[nH]2)nc2cc(C(=O)O)ccc21 | 16.4 |
| COc1ccc(NC(=O)COC(=O)c2c(C)noc2C)c(OC)c1 | 3.73 |
| COc1ccc(C(=O)NC(C(=O)OCC(=O)Nc2sccc2C(N)=O)C(C)C)cc1 (centres unmarked) | -2.63 |

| SMILES | hERG current change (%, negative = inhibition) at 10uM [%] |
| --- | --- |
| CCCCOc1ccc(C(=O)N/C(=C\c2cccc([N+](=O)[O-])c2)C(=O)OCc2ccco2)cc1 | 12.4 |
| CCSc1nnc(NC(=O)CSc2nc3c(c(=O)n2-c2ccccc2)SCC3)s1 | -10.6 |
| CC1=C[C@H]2Cc3cc(C)cc(C)c3S(=O)(=O)[C@@H]2C=C1 | 0.74 |
| CN1CN(c2cccc([N+](=O)[O-])c2)CN=C1N[N+](=O)[O-] | 33 |
| O=C(CC(c1ccccc1)c1ccccc1O)NCc1ccco1 (centres unmarked) | -2.88 |
| CN1N=C(C(=O)N2CCCC(Nc3ccc(F)c(F)c3)C2)CCC1=O (centres unmarked) | 10.3 |
| Cc1cc(SCc2ccc(Br)cc2)nc(=O)[nH]1 | 16 |
| O=C(CN1C(=O)NC2(CCc3ccccc32)C1=O)c1ccc2c(c1)OCCO2 (centres unmarked) | 7.1 |
| CCCNCc1cc(Br)ccc1OCC(=O)NCCc1ccccc1 | -63.5 |
| CC(=O)Nc1c2c(nn1-c1ccc(C)cc1C)CSC2 | 10.5 |
| COc1cc(/C=N/NC(=O)c2nnn(-c3nonc3N)c2C(C)C)ccc1O | -2.72 |
| CC(=O)Nc1cccc(C(=O)Nc2cccc3ncccc23)c1 | 15.5 |
| Cc1[nH]nc(-c2ccc(O)cc2O)c1-c1ccc(Cl)cc1 | -4.72 |
| O=C1CSC(c2ccccc2)N1CCc1ccccc1 (centres unmarked) | 1.82 |
| CC(=O)Nc1c(C(=O)NCc2ccccc2)nnn1Cc1ccccc1 | 4.42 |
| O=C(Cc1ccccc1)Nc1ccc(NC(=O)c2ccco2)nc1 | -5.96 |
| O=[N+]([O-])c1ccc(/C=C/c2ccc3ccccc3n2)cc1 | 5.95 |
| COC1C=CC(CNC(=O)c2cc3c(=O)n4cccc(C)c4nc3n2C)(OC)O1 (centres unmarked) | 10.1 |
| C=C[C@@H]1c2cc(C)ccc2N(S(=O)(=O)c2ccc(C)cc2)[C@H](c2ccccc2)C1(C#N)C#N | 11.7 |

| SMILES | hERG current change (%, negative = inhibition) at 10uM [%] |
| --- | --- |
| COc1c(C)cc(C(=O)C2CCCN(C(=O)c3cccc(F)c3)C2)cc1C (centres unmarked) | 6.6 |
| CC(=O)N/C(=C\c1ccc(F)cc1)C(=O)N(C)C | 14.2 |
| CC(C)CNC(=O)C(=O)Nc1ccc(N(C)C)cc1 | 8.18 |
| CC1(C)Cc2nc(NC3CCCCC3)c(C#N)cc2CO1 | 0.377 |
| COc1cccc(N2CCN(C(=O)CN(C)S(=O)(=O)c3ccc4c(c3)CCC(=O)N4)CC2)c1 | -48.6 |
| CCCn1nc(NC(C)=O)c2cc3cccc(C)c3nc21 | 23.2 |
| Cn1c(Cc2cccc3ccccc23)nnc1SCc1ccc([N+](=O)[O-])cc1 | -40.5 |
| Cc1cc(NC(=O)COc2ccc(Cl)cc2Cl)n(-c2ccccc2)n1 | -5.57 |
| O=C(c1ccccc1)c1c[nH]c2ccccc12 | 14.6 |
| COc1ccc2c(c1)CCc1c-2n[nH]c1C(=O)NCCC(C)C | 11.7 |
| O=S(=O)(CCc1nc2ccccc2s1)c1ccc2ccccc2c1 | 6.95 |
| Cc1cc(C)cc(NC(=O)C2C3C=CC4(O3)C2C(=O)N(CCN2CCCCC2)C4C(=O)NC2CCCCC2)c1 (centres unmarked) | -40.3 |
| COc1ccc(NS(=O)(=O)c2cc(NC(=O)Cc3c(F)cccc3Cl)ccc2OC)cc1 | 16 |
| CCc1nnc(NC(=O)CSc2nccn2-c2cc(C)cc(C)c2)s1 | -6.58 |
| CC(NC(=O)C(=O)NN=C1CCCCCCCCCCC1)c1ccccc1 (centres unmarked) | 12.8 |
| COC(=O)c1ccc2c(c1)NC(=O)CS2 | 17.5 |
| CCn1cc([N+](=O)[O-])c(C(=O)Nc2ccc(Cn3nc(C)cc3C)cc2)n1 | -7.93 |
| CCOc1ccc(-n2c(SCC(=O)c3c(N)n(C)c(=O)n(C)c3=O)nnc2-c2cccnc2)cc1 | 3.28 |
